Reference: the supplement of paper PMC3334620
Whole data set: some 33,000 sequences, median “E-score (-0.5 to 0.5)” near -0.036, cut for the highest 2% near 0.37. This is one part of the list.

molecular target: T1, Yer064c (UniProt P40041); assay: PBM E-score (8-mer binding enrichment) (E-score (-0.5 to 0.5)); higher = stronger / more preferred TF binding; most listed sequences are background and not binding sites; conditions: protein concentration: 200 nM; construct: GST-full length
T1 sequence: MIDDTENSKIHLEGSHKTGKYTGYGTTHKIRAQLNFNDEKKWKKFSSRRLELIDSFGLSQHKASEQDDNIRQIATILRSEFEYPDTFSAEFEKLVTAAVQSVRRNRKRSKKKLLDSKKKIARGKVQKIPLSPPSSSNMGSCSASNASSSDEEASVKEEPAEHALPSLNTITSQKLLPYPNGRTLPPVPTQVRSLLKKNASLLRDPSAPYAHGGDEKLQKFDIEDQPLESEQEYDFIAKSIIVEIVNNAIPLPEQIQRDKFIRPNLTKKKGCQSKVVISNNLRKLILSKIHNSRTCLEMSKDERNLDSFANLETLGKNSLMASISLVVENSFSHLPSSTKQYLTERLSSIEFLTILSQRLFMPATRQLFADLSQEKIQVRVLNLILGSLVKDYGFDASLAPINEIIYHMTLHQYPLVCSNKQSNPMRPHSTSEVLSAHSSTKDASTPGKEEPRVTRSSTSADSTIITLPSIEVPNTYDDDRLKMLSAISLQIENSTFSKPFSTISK
Procedure, shortened: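 The E-score, a modified Wilcoxon-Mann-Whitney statistic, was computed by the Universal PBM Analysis Suite for every ungapped eight-base word pooled with its reverse complement. Scans behind it were normalised with masliner after bound GST-tagged yeast transcription factors were detected with fluorescent anti-GST. The proteins, at about 100-200 nM, had been applied to universal all-10-mer Agilent arrays made double-stranded by primer extension.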

Sequence | PBM E-score
CTGTTAAC | 0.00673
CACCTCTA | -0.0715
CGATCAGC | -0.19
AAGGTTAG | -0.126
GGCCAGTA | -0.148
AGATCCCG | -0.0163
CGTATTTA | -0.0843
CAGGGCCC | -0.085
ACTCTCAA | 0.257
AGGCTACA | 0.0571
GGCCTCCC | -0.39
ACTCCCAT | 0.201
CTTCTGGA | -0.116
AGAATTCA | -0.079
ACTGCAGT | 0.25
TGCTTCCA | -0.182
AGGGCCAG | -0.139
ACACATTG | 0.0326
CGCTGTAA | 0.11
ACGAACAT | 0.0393
ATTTTCGG | 0.147
TTATACAA | 0.0882

Sequence | PBM E-score
ATTGACTG | 0.275
CCGGGACG | -0.357
CATCTCCA | -0.07
ATAAGGAA | -0.134
GGGATTAA | 0.166
GACATGCC | -0.101
AGAAATCT | -0.044
GTCATCTA | 0.35
GTGTTGCA | -0.0318
AGCCCTAC | -0.205
CAATAGCG | -0.227
CTATTAAC | 0.0536
TGGGAGAA | -0.171
ACATCCGC | -0.134
ATCAGCCG | 0.223
ACTCCCAG | 0.122
ACAGGAGA | -0.0335
CATCCGAC | 0.121
ACAGGATG | -0.068
CTCCGTGC | -0.156
ACAGGGAC | -0.0116
AGATAGAA | -0.0345

Sequence | PBM E-score
ATCAACAG | 0.196
CTTATCGA | 0.147
TAAACCCA | 0.00079
ACACTATA | -0.058
CATGAGGC | -0.17
GTCTATAA | 0.117
AGCTCCAT | -0.174
GGTATATA | -0.0295
AAGATAGG | -0.142
ATTGGGGC | -0.178
AAGGCCCG | -0.347
AGCATATG | -0.154
ACAAATCG | -0.0691
GCGATGCC | -0.367
GTGAGCAA | 0.0822
CCCCTCAC | -0.0378
GAGTCAGC | 0.48
CCTAGGAC | -0.0387
GGAACTTA | -0.0956
AGACATGA | 0.289
GCTTCTGA | 0.0255
GCTACGCA | -0.145

Sequence | PBM E-score
ATTCACAC | 0.148
AAGAGCGT | -0.163
AAGCGGGC | -0.196
ATACCTCG | 0.0648
CCTATCGC | -0.0141
AGACGGCA | -0.128
ATGGCGCC | -0.173
AATCGCGA | 0.143
TATGTCAA | -0.037
CCGATCCG | -0.158
CCATAAGC | -0.132
AAGTCGCA | 0.257
GGCAAGGA | -0.132
CAGCACTG | -0.241
AAGAGAGC | -0.303
CCGGTAAA | -0.107
ACTCGACC | 0.163
ATAGATAA | 0.00235
CACTGTAG | 0.114
CCACAGGC | -0.119
